Laboratory results published in the supplement of paper PMC11417369.
The list shows a part of the results.

System: PfSIP2 AP2 domain 1 (GST-tagged)
Experiment: gcPBM binding intensity (ln(normalized median fluorescence intensity)); higher = stronger DNA binding
In short: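 After 1 h on an Agilent 4 × 180k array of primer-extended double-stranded 36-bp intergenic genomic probes and negative controls, bound GST-tagged P. falciparum DNA-binding domains were detected with Alexa488 anti-GST antibody and scanned at 488 nm. The domains had been expressed in E. coli, and binding took place in 1× PBS with 1% milk, 0.2 mg/ml BSA, 0.5% salmon testes DNA and 0.03% Triton X-100. Binding intensity is the highest Masliner-normalised natural-log median intensity across replicate spots of either probe orientation.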

Sequence | gcPBM binding intensity (ln)
TACAAAAATAAATGTTGTACTATTATTTATTTCGAT [XGTACX_site1048] | 6.99
TTAAAGATATACAAAAGTACTTTTTTTTTCGTCATT [XGTACX_site384] | 7.03
TTCATTAAATAGAACAAAATAATAATATAACAACAA [GTGCAC_negctrl_site116] | 7.27
CCATATCTTTTTTGCACACACTACAATAAAACAAAA [CACACA_site4995] | 8.19
TGATACTTATGATAAATACACACTTGAAATTAAGGA [CACACA_site1152] | 7.01
TATATAGCATATTTCACACACACATAATGAATATTA [CACACA_site3546] | 7.19
ATGATATACGTAAACACACAAATAAAAAAAATTTAT [CACACA_site7544] | 7.04
TTTTTTAGTTTTTAGTGTACATAAATAAATAAATAA [XGTACX_site2843] | 7.25
TTAAAAAGAAAGTTCACACACATATAGATGACGGAA [CACACA_site7268] | 6.9
ATTTATTTATATAATACACACAAATATCTTAATGAA [CACACA_site6064] | 6.75
ATTTTTTCTAATGGGTGTACTGAAACGTATTTTATT [XGTACX_site6573] | 7.2
TTATTTTTTCTTTTTTTTCTTACCACAAAAATGGAT [CACACA_negctrl_site362] | 6.79
ATTTGTAATTATTAAACACACACAAAATATATATAA [CACACA_site8804] | 7.09
TTGTGATTATATAATCGTACATAATTTTAATCACAC [XGTACX_site398] | 7.04
AAAAAAAAAAAAAACACACACATATCTATAATATAT [CACACA_site7481] | 7.07
GAATATAAACATATTACACACATCTATATGTACTTT [CACACA_site8582] | 6.89
CAAAACAAAGTTGCCGCACACAGATACGCACCCAAG [CACACA_site3455] | 11.9
GTAATATTATAATATACACACATAGAATATAAATAT [CACACA_site6333] | 7.23
TTCAAGATTTATTATACACACATATTAATATATATA [CACACA_site573] | 7.38
AAAATACACCAACACACACACATATATATATATATT [CACACA_site4149] | 7.27
AGAATAAAAAGGAACACACACACACGCATATAAATA [CACACA_site7659] | 6.99
TTTATTTAATTCATTGCATGTAATTTTTGTGTCCAC [TGCATGCA_site677] | 6.81
TTTTATGATAATTTTGCACACACTTAGGAAAAATTA [CACACA_site1556] | 7.36
TTAAAAAAAAATGGCACACATTTTAATTTTATGTTT [CACACA_site5035] | 6.73
